Source: the supplement of paper PMC11417369
± gives the standard deviation of the averaged measurements. Some of the results follow.

Each sequence was assayed on PfAP2-I AP2 domain 3 (GST-tagged) (assay: gcPBM binding intensity (ln(normalized median fluorescence intensity)); higher = stronger DNA binding).
Procedure, shortened: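 DNA-binding domains from P. falciparum, fused to GST and produced in E. coli, were put on an Agilent 4 × 180k double-stranded probe array for 1 h in 1× PBS holding 1% milk, 0.2 mg/ml BSA, 0.5% salmon testes DNA and 0.03% Triton X-100. Probes were primer-extended, 36 bp long and drawn from intergenic genomic regions, with negative controls included. After Alexa488 anti-GST antibody detection and a 488 nm scan, binding intensity was set as the highest Masliner-normalised natural-log median intensity across replicate spots of either probe orientation.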

| Sequence | gcPBM binding intensity (ln) |
| --- | --- |
| ATTTTATTTAAATACACACACATATATATATTATAT [CACACA_site4607] | 8.03 ± 0.49 |
| CACAGACACCCATACACACACATACCCATATATATA [CACACA_site5023] | 8.39 ± 0.67 |
| AAAAAAAAAAAAAAAGCACACATCATATTTTAATTC [CACACA_site9109] | 9 ± 0.41 |
| ACACAAAAATGAAAAATGAAAAGGGTAATATATATA [CACACA_negctrl_site1490] | 8.48 ± 0.57 |
| ACATAGATCATAGGTTGTACGAAGGTATCCTTTATT [XGTACX_site694] | 7.57 ± 0.61 |
| TCATATATATATATATGTACATATTTATGTATGTAT [XGTACX_site6291] | 7.62 ± 0.33 |
| ACTTTTTGAATGTTTGCACACAAATCTCATAATTTT [CACACA_site358] | 8.91 ± 0.36 |
| TTTTTCTTTGAATAAATACACACGAGAAATGAAAGT [CACACA_site1688] | 8.47 ± 0.59 |
| AAAAGGAGCAAATACAAAAAAATGAACAAAAAAAAA [CACACA_negctrl_site716] | 8.24 ± 0.47 |
| TTTTGTAATGCTTTTTTTTTTTTTTTTTTTTTTTTT [CACACA_negctrl_site932] | 9.885 ± 0.035 |
| CATACCTATAGACACACACACACACGCACGCACAAA [CACACA_site6374] | 8.54 ± 0.65 |
| TAATAAATCAAATGCACACACACAAAAAAAAAAAAA [CACACA_site161] | 9.24 ± 0.38 |
| TTTTTATTTTTTTATGCATGTGATGAAACGTGCCTA [TGCATGCA_site141] | 8.15 ± 0.74 |
| ATAATTAACAAATACACACACACACCCAGACAAAAA [CACACA_site4445] | 8.37 ± 0.16 |
| AACAATTAGAATAACGCATGCATTTATAATATAGAA [TGCATGCA_site595] | 8.15 ± 0.87 |
| TGTGTATATATAAATACACACCAAATGTTAATATAT [CACACA_site8501] | 7.83 ± 0.43 |
| AAACAAATAAAAATATGTACACATTTTTTCATTATG [XGTACX_site5449] | 7.81 ± 0.38 |
| AAAATATTAAATATGTGTACATATAATAGTTCAATG [XGTACX_site5957] | 7.71 ± 0.42 |
| TTAAAAGAAAATAGGTGTACACATAATATATACATA [XGTACX_site7697] | 8.3 ± 0.2 |
| TTTTTAATCATAATATGTACATATAAAAATGGTTTG [XGTACX_site3996] | 7.71 ± 0.54 |
| AATATGTCTTAAAAAAGTACATAAATTTTAACTTCA [XGTACX_site6670] | 7.865 ± 0.035 |
| ATTAATTAAAATAGTTGTACAATCAAAAAAACAAAA [XGTACX_site7660] | 8.15 ± 0.64 |

| Sequence | gcPBM binding intensity (ln) |
| --- | --- |
| AACAAAGAGAAATAAACACACACAAAATAAAGAAAA [CACACA_site8704] | 7.83 ± 0.82 |
| TTTTTGTATGCTTCCCGACTACATTATGTCGTAAAT [GTGCAC_negctrl_site164] | 8.12 ± 0.84 |
| AGAATATATAAGTATACACACATATATATATATATA [CACACA_site201] | 9.36 ± 0.47 |
| ATATCGAAAATTTGGTGTACATTTTTATTTGTTCAA [XGTACX_site3094] | 8.14 ± 0.48 |
| TATAAAATAATTAAATGTACATAATATATAAAATAT [XGTACX_site6777] | 7.81 ± 0.52 |
| TTATAAATATTCACTGTGCACTGATGGAATATAAAT [GTGCAC_site9739] | 10.6 ± 0.2 |
| GATATTACGTGTTTGGTATTTTTTGATGTTAATAGG [CACACA_negctrl_site105] | 7.82 ± 0.73 |
| TTTATTTTTCATTGGGGTACACAAGTTTATTTTTGA [XGTACX_site4262] | 8.27 ± 0.13 |
| ATATCGTTTTTAAATTGTACATTCACTATAGAATAA [XGTACX_site6442] | 8 ± 0.61 |
| TTCTTTGTTTTTTTTTTTTTTTTAAAAGATAATATT [XGTACX_negctrl_site381] | 7.88 ± 0.42 |
| ATTTTTTCTTTTCGATGTACCCTTCTTATTCTTTAT [XGTACX_site3782] | 8.2 ± 0.91 |
| TATATCGCCTTCAAAAGTACTCATATAAAAAAAAAA [XGTACX_site7123] | 7.82 ± 0.32 |
| ATATATTTATTTTGTGCACACAACGCAAACCTTTTA [CACACA_site3508] | 10.98 ± 0.092 |
| AGTTCATATTTAAAAAGTACATATTTAAAAACTTCT [XGTACX_site4882] | 7.78 ± 0.46 |
| TTTGAACTTTTATATACACACATTATTATAGTATAG [CACACA_site6851] | 7.72 ± 0.54 |
| AAAAAAAAAAAAAAATGTACTTTTATTATTAATATA [XGTACX_site6357] | 8.04 ± 0.47 |
| ATGCATATATTTATGTGTACATATATTTGTAGGGGG [XGTACX_site6063] | 9.675 ± 0.078 |
| AAAAAAAACAGACACACACACACATATACATACATA [CACACA_site2665] | 7.76 ± 0.38 |
| TTATAGTAATAATAATGTACATTTATACACATATAT [XGTACX_site1965] | 7.91 ± 0.51 |
| ATATATATATATATAACATGCAAAGTTCAAAAAAAA [TGCATGCA_site943] | 9.35 ± 0.23 |
| TTTTTTTTATTATAAATATATATATTATAAAACGAA [XGTACX_negctrl_site189] | 7.83 ± 0.11 |
| TCAAAAAAAATTTTAGTGCATATTTTAGTCAAAACA | 9.465 ± 0.035 |

| Sequence | gcPBM binding intensity (ln) |
| --- | --- |
| CATTCTACAATAAAAAGTACATATATATATTATATA [XGTACX_site921] | 7.76 ± 0.31 |
| AAATTAAATGATAGAGCATGCGCTAAAAATGAGAAA [TGCATGCA_site937] | 7.95 ± 0.76 |
| ACACATATAATAGTTACATGCAAAAATACTTTTATT [TGCATGCA_site785] | 7.57 ± 0.71 |
| TTTTTATAACATAAAAGTACATATTTTTAATTTAAT [XGTACX_site4394] | 7.45 ± 0.44 |
| ATTTAAATAATATGTACACACATTTAAAAAGTTATA [CACACA_site7347] | 8.045 ± 0.049 |
| TAATATTTCGTTAAGTTTTAAAGAAAAAAAAAAAAA [CACACA_negctrl_site1253] | 7.93 ± 0.91 |
| AAATTAAAAATAATTACACACATAGAAAAGTTATAT [CACACA_site7137] | 7.74 ± 0.7 |
| TTTTCAGAAAGACATGCATACAAAAATAAAAAAGAT [TGCATGCA_site814] | 8.61 ± 0.73 |
| TTTTGCAAATATTACTGTACACAATCTCATATAATT [XGTACX_site2584] | 8.13 ± 0.58 |
| AAAACTTTTAGTTATACACACAACATAGAAAATATT [CACACA_site6287] | 7.81 ± 0.69 |
| AATGAGCGTTAAAAATGTACAGAAAATTGGAATTAT [XGTACX_site5743] | 8.11 ± 0.56 |
| CTCCTACAAATATGTAGTACATTCAAAATAAATACC [XGTACX_site8207] | 8.19 ± 0.16 |
| AACAATCAAATAGACACACACACACCCAAACATAAA [CACACA_site2757] | 8.125 ± 0.035 |
| ATGCAATAAATATACACACACAAATCTATATTTATA [CACACA_site7179] | 8.04 ± 0.44 |
| TTTTTTTTGTAGAATTGTACTTATAAAATATATATA [XGTACX_site2116] | 7.8 ± 0.23 |
| AAAAAATGGATGATCACACACTTCATAAAAGTTGCA [CACACA_site7109] | 7.38 ± 0.47 |
| AATTATTATATATATATATATATATATTTATATATT [GTGCAC_negctrl_site387] | 7.84 ± 0.48 |
| AGTTCAAGGATTAAGACACACATATAAATAAATAAA [CACACA_site3662] | 7.97 ± 0.59 |
| CATTATGTTGTAAATACACACATACCTATACATACA [CACACA_site6485] | 7.91 ± 0.59 |
| TTTTTTTTTTTATCTGCACACCCTTTTGTGAATATT [CACACA_site789] | 9.26 ± 0.43 |
| TCTGAGAATGATAAAAAAAAAAAAAATGAAAAATTA [CACACA_negctrl_site1478] | 7.18 ± 0.61 |
| ACGATATTTTTGGTGACACACATATATATATATATA [CACACA_site126] | 9.33 ± 0.28 |

| Sequence | gcPBM binding intensity (ln) |
| --- | --- |
| TATTTATTTATATTTACACACATTCATATAAATTCA [CACACA_site7628] | 8.1 ± 0.37 |
| GTCACATTGTTATATTGTACAAATGTCGTTCTTTTT [XGTACX_site8098] | 7.75 ± 0.69 |
| CACTATCAATATATATGTACATATATATATATATAT [XGTACX_site7854] | 9.25 ± 0.41 |
| ATATAAAAATATATTAATATAAATAAATGGACATAT [XGTACX_negctrl_site488] | 8.05 ± 0.74 |
| TAAATATATAAATACACACAAACATACATATATATA [CACACA_site4050] | 8.31 ± 0.58 |
| CTTATACATTATTAACGTACATGTTATATGAATAAC [XGTACX_site5752] | 7.72 ± 0.16 |
| AACATTATAGGACACACACACACATATATATATATA [CACACA_site4721] | 9.61 ± 0.24 |
| TTTTTTTTTTTTTTTTTTTTTTTTAAATGCTTCTAA [TGCATGCA_negctrl_site253] | 8.04 ± 0.63 |
| AACAAATAAGATAAATGACTTAACAAAAGAAAAAAG [CACACA_negctrl_site1409] | 7.52 ± 0.86 |
| TTTTAATTATATTATGCACACACAATTGGAAAAAAA [CACACA_site8598] | 10 ± 0.57 |
| GTAAAAAATATGAATACACACATAAAGGAAATAACA [CACACA_site1997] | 8.04 ± 0.83 |
| AAAAAAAAAAAATTCACACACATATAAAAAATTAAG [CACACA_site728] | 7.62 ± 0.55 |
| TAATATATAAGTATTTGTACATATTCATTCATCTAT [XGTACX_site2935] | 7.49 ± 0.49 |
| TTTTTTTTTTTTTTTTTTTTTTTTGGGTCCCATACA [CACACA_negctrl_site913] | 8.1 ± 0.63 |
| AAAAAAAAAAAAAAAAGTACAGACGTCAAAAAAAAA [XGTACX_site4817] | 8.76 ± 0.16 |
| TTATAATAAATATGAAGTACTATAAATATGGTATAT [XGTACX_site5448] | 7.88 ± 0.42 |
| ATCGCATAAAGACAAGAACACACATATATATTGTAG [CACACA_site9229] | 7.8 ± 0.62 |
| AATAAATATAGGAATACACACAATATAAATGTATTG [CACACA_site3366] | 7.5 ± 0.62 |
| CACTAAAATGGACACACACACACACCGATATATATA [CACACA_site6139] | 8.29 ± 0.51 |
| ATTTGGCATAAACACACACACACACCCACCCACATA [CACACA_site8096] | 8.39 ± 0.67 |
| TTTTTATTGAGAACAGTGCAAATAACAAAAAAAAAA | 10.5 ± 0.15 |
| TAAATAAATACATACACACACATACATATATATATA [CACACA_site3129] | 9.41 ± 0.39 |
